# Laboratory results from the supplement of paper PMC4604168 (melanoma cell lines).
# Some of the results follow. Single values are uncertain, as repeats are few or missing.
# Assays:
# Assay in all cases: cell count relative to DMSO control; melanoma cells; higher = more viable cells
# Conditions in all cases: library dose: standard library concentration; 72 h
# G361 = tested on: G361
# IPC-298 = tested on: IPC-298
# IST-MEL1 = tested on: IST-MEL1
# LB2518-MEL = tested on: LB2518-MEL
# LOXIMVI = tested on: LOXIMVI
# MEL-HO = tested on: MEL-HO
# MZ2-MEL = tested on: MZ2-MEL
# MeWo = tested on: MeWo
# RPMI7951 = tested on: RPMI7951
# RVH-421 = tested on: RVH-421
# 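Further: cells treated in 1,536-well plates, then fixed and DAPI-stained, with nuclei counted from automated high-throughput microscope images.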
SMILES,cell count (G361) [%],cell count (IPC-298) [%],cell count (IST-MEL1) [%],cell count (LB2518-MEL) [%],cell count (LOXIMVI) [%],cell count (MEL-HO) [%],cell count (MZ2-MEL) [%],cell count (MeWo) [%],cell count (RPMI7951) [%],cell count (RVH-421) [%]
"CC1(C)CCC(c2ccc(Cl)cc2)=C(CN2CCN(c3ccc(C(=O)NS(=O)(=O)c4ccc(N[C@H](CCN5CCOCC5)CSc5ccccc5)c(S(=O)(=O)C(F)(F)F)c4)cc3)CC2)C1 + OCc1c[nH]c2ccccc12 [Indole-3-carbinol] (first compound 2 µM, partner dose 4 µM)",65.1,84.8,76.9,84.5,37.5,53.2,68.1,94.7,44.9,67.5
"Cc1ccc(Nc2nccc(N(C)c3ccc4c(C)n(C)nc4c3)n2)cc1S(N)(=O)=O [Pazopanib] + COc1ccc(Cl)c(Nc2nc3ccccc3nc2NS(=O)(=O)c2cccc(NC(=O)C(C)(C)N)c2)c1 [XL147] (first compound 2 µM, partner dose 4 µM)",60.1,51.2,66.9,73.2,98.4,74.1,46.7,61.9,69.8,66.3
"O=C(/C=C/c1cccnc1)NCCCCC1CCN(C(=O)c2ccccc2)CC1 + Cc1nc(Nc2ncc(C(=O)Nc3c(C)cccc3Cl)s2)cc(N2CCN(CCO)CC2)n1 [dasatanib] (first compound 0.05 µM, partner dose 0.02 µM)",3.25,3.27,48,41.9,14.4,17,7.33,75.7,53.7,5.35
"CC1(C)CCC(c2ccc(Cl)cc2)=C(CN2CCN(c3ccc(C(=O)NS(=O)(=O)c4ccc(N[C@H](CCN5CCOCC5)CSc5ccccc5)c(S(=O)(=O)C(F)(F)F)c4)cc3)CC2)C1 + CS(=O)(=O)CCNCc1ccc(-c2ccc3ncnc(Nc4ccc(OCc5cccc(F)c5)c(Cl)c4)c3c2)o1 [lapatinib] (first compound 2 µM, partner dose 4 µM)",36.3,75.1,38.6,51.3,17.1,35,27.3,54.1,8.09,32.7
"O=C(/C=C/c1cccnc1)NCCCCC1CCN(C(=O)c2ccccc2)CC1 + Cc1ccc(Nc2nccc(N(C)c3ccc4c(C)n(C)nc4c3)n2)cc1S(N)(=O)=O [Pazopanib] (first compound 0.05 µM, partner dose 2 µM)",3.08,27.8,59.6,37.3,68,40.6,27.5,82.2,70.1,21.4
"O=C(/C=C/c1cccnc1)NCCCCC1CCN(C(=O)c2ccccc2)CC1 + Nc1ccn([C@@H]2O[C@H](CO)[C@@H](O)C2(F)F)c(=O)n1 [gemcitabine] (first compound 0.05 µM, partner dose 0.002 µM)",4.45,24.6,33.9,59.5,78.1,30.5,28.1,61.9,49.2,65.6
"CC1(C)CCC(c2ccc(Cl)cc2)=C(CN2CCN(c3ccc(C(=O)NS(=O)(=O)c4ccc(N[C@H](CCN5CCOCC5)CSc5ccccc5)c(S(=O)(=O)C(F)(F)F)c4)cc3)CC2)C1 + CCCCCCCCCCCC1=C(O)C(=O)C=C(O)C1=O [Embelin] (first compound 2 µM, partner dose 6 µM)",62.9,84.7,55.7,98.5,111,41.4,82.1,67.1,23.8,40
"Cc1ccc(Nc2nccc(N(C)c3ccc4c(C)n(C)nc4c3)n2)cc1S(N)(=O)=O [Pazopanib] + O=C(O)C(=O)Nc1sc2c(c1C(=O)O)CCNC2 [TCS401] (first compound 2 µM, partner dose 8.33333 µM)",74.9,76.5,96.7,84.4,90.2,84.8,89.5,76.6,75.3,93.5
"O=C(/C=C/c1cccnc1)NCCCCC1CCN(C(=O)c2ccccc2)CC1 + O=C1NC(=O)/C(=C/c2ccc(-c3ccc(F)cc3O)o2)S1 [AS252424] (first compound 0.05 µM, partner dose 5 µM)",3.51,36.3,70.6,63.1,89.3,52.3,38.5,84.4,107,54.4
"O=C(/C=C/c1cccnc1)NCCCCC1CCN(C(=O)c2ccccc2)CC1 + NC1(c2ccc(-c3nc4ccn5c(=O)[nH]nc5c4cc3-c3ccccc3)cc2)CCC1 [MK2206] (first compound 0.05 µM, partner dose 2 µM)",4.91,31.5,71.5,64.1,70.9,36.4,29.2,107,105,44.3
"Cc1ccc(Nc2nccc(N(C)c3ccc4c(C)n(C)nc4c3)n2)cc1S(N)(=O)=O [Pazopanib] + NC(=O)Nc1cc(-c2cccc(F)c2)sc1C(=O)N[C@H]1CCCNC1 [AZD7762] (first compound 2 µM, partner dose 0.1 µM)",86.2,74.9,99.2,68.4,84.8,96.7,89.4,102,53.7,103
"O=C(/C=C/c1cccnc1)NCCCCC1CCN(C(=O)c2ccccc2)CC1 + CN1CCN(c2ccc3nc(-c4c(N)c5c(F)cccc5[nH]c4=O)[nH]c3c2)CC1 [Dovitinib] (first compound 0.05 µM, partner dose 0.5 µM)",2.79,26.1,41.6,38.3,90.2,26.3,16.1,43.1,93.2,40.7
"CC1(C)CCC(c2ccc(Cl)cc2)=C(CN2CCN(c3ccc(C(=O)NS(=O)(=O)c4ccc(N[C@H](CCN5CCOCC5)CSc5ccccc5)c(S(=O)(=O)C(F)(F)F)c4)cc3)CC2)C1 + COc1cc(N2CCC(N3CCN(C)CC3)CC2)ccc1Nc1ncc(Cl)c(Nc2ccccc2S(=O)(=O)C(C)C)n1 [NVP-TAE684] (first compound 2 µM, partner dose 0.4 µM)",49.8,79.3,73.5,72.1,38.9,46,83.6,52,26.2,71.7
"CC1(C)CCC(c2ccc(Cl)cc2)=C(CN2CCN(c3ccc(C(=O)NS(=O)(=O)c4ccc(N[C@H](CCN5CCOCC5)CSc5ccccc5)c(S(=O)(=O)C(F)(F)F)c4)cc3)CC2)C1 + C#Cc1cccc(Nc2ncnc3cc(OCCOC)c(OCCOC)cc23)c1 [erlotinib] (first compound 2 µM, partner dose 4 µM)",53.5,72.4,76,23.8,73.5,42.3,67.5,54.7,21.3,29.2
"O=C(/C=C/c1cccnc1)NCCCCC1CCN(C(=O)c2ccccc2)CC1 + O=c1cc(-c2cccc3c2Sc2ccccc2S3)oc(N2CCOCC2)c1 [KU55933] (first compound 0.05 µM, partner dose 5 µM)",4.08,23.1,55.5,53.8,159,34.3,24.5,92.7,65.6,47.1
"CC1(C)CCC(c2ccc(Cl)cc2)=C(CN2CCN(c3ccc(C(=O)NS(=O)(=O)c4ccc(N[C@H](CCN5CCOCC5)CSc5ccccc5)c(S(=O)(=O)C(F)(F)F)c4)cc3)CC2)C1 + Cn1c(Nc2ccc(C(F)(F)F)cc2)nc2cc(Oc3ccnc(-c4ncc(C(F)(F)F)[nH]4)c3)ccc21 [CHIR265] (first compound 2 µM, partner dose 0.4 µM)",2.34,37.7,62.9,2.56,17.7,30.1,22.1,48.7,15.3,3.48
"Cc1ccc(Nc2nccc(N(C)c3ccc4c(C)n(C)nc4c3)n2)cc1S(N)(=O)=O [Pazopanib] + CN(C)S(=O)(=O)c1ccc2c(c1)/C(=C/c1cc3c([nH]1)CCCC3)C(=O)N2 [SU6656] (first compound 2 µM, partner dose 2 µM)",59.4,61.5,66,75.9,76.4,71.3,91.4,71.9,46.9,89.9
"O=C(/C=C/c1cccnc1)NCCCCC1CCN(C(=O)c2ccccc2)CC1 + CC1(C)CCC(c2ccc(Cl)cc2)=C(CN2CCN(c3ccc(C(=O)NS(=O)(=O)c4ccc(N[C@H](CCN5CCOCC5)CSc5ccccc5)c(S(=O)(=O)C(F)(F)F)c4)cc3)CC2)C1 [ABT263] (first compound 0.05 µM, partner dose 2 µM)",2.43,13.2,5.53,20.7,15.6,3.03,5.23,81.4,64.7,4.57
"Cc1ccc(Nc2nccc(N(C)c3ccc4c(C)n(C)nc4c3)n2)cc1S(N)(=O)=O [Pazopanib] + Cn1sc(=O)n(Cc2ccccc2)c1=O [TDZD-8] (first compound 2 µM, partner dose 2 µM)",80.2,67.7,89.2,61.4,116,93.1,61.3,82.9,53.3,105
